# Data taken from patent US4843087A (priority 1986, dated 1989).
# Legend:
# echovirus-9 = assay: in vivo efficacy in echovirus-9 mouse infection model; details: mice, twice a day dosing with 12.5 mg/kg
# HRV2 = assay: microbe, parasite or virus in culture; details: Enterovirus, HRV2, HeLa, read-out: Rhinovirus MIC against HRV2 only
Structure (SMILES),effect against echovirus-9 induced paralysis (echovirus-9),EC50 (HRV2) [µg/mL]
"Cc1cc(CCCCCOc2c(Cl)cc(C3=NCCO3)cc2Cl)on1 [5-{5-[2,6-Dichloro-4-(4,5-dihydro-2-oxazolyl)phenoxyl]-pentyl}-3-methylisoxazole]",effective,–
"Cc1cc(CCCCCCCc2ccc(C3=NCCO3)cc2)on1 [6(g), 5-{7-[4-(4,5-Dihydro-2-oxazolyl)phenyl]heptyl}-3-methylisoxazole]",–,0.06
"Cc1cc(CCCCOc2ccc(C3=NCCO3)cc2)on1 [21 (b), 5-{4-[4-(4,5-Dihydro-2-oxazolyl)phenoxy]butyl}-3-methylisoxazole]",–,0.5
"Cc1cc(CCCCCCCOc2ccc(-c3ncco3)cc2)on1 [87(b), 3-Methyl-5-{7-[4-(2-oxazolyl)phenoxy]heptyl}isoxazole]",–,0.4
"Cc1cc(CCC2CCC(COc3ccc(C4=NCCO4)cc3)CC2)on1 (stereo not shown) [101 (b), 5-{2-[4-[[4-(4,5-Dihydro-2-oxazolyl)phenoxy]methyl]cyclohexyl]ethyl}-3-methylisoxazole]",–,1.9
"OCc1cc(CCCCCCCOc2ccc(C3=NCCO3)cc2)on1 [Example 11, 5-{7-[4-(4,5-Dihydro-2-oxazolyl)phenoxy]heptyl}-3-isoxazolemethanol]",–,0.3
"Cc1cc(C(O)CCCCCCOc2ccc(C3=NCCO3)cc2)on1 (stereo not drawn) [Example 12, α-{6-[4-(4,5-dihydro-2-oxazolyl)phenoxy]hexyl}-3-methyl-5-isoxazolemethanol]",–,1.4
"Cc1cc(CCCCCCCCOc2ccc(C3=NCCO3)cc2Cl)on1 [Example 22, 5-{8-[2-Chloro-4-(4,5-dihydro-2-oxazolyl)phenoxy]octyl}-3-methylisoxazole]",–,0.4
"Cc1cc(CCCCCCCc2ccc(C3=NC(CO)CO3)cc2)on1 (stereo not shown) [Example 25, 5-{7-[4-(4,5-Dihydro-4-hydroxymethyl-2-oxazolyl)phenyl]heptyl}-3-methylisoxazole]",–,2.1
"CC(=O)OCc1cc(CCCCCCCOc2ccc(C3=NCCO3)cc2)on1 [Example 28, 5-{7-[4-(4,5-Dihydro-2-oxazolyl)phenoxy]heptyl}-3-isoxazolemethanol acetate]",–,0.1
"Cc1cc(CCCCCOc2cccc(C3=NCCO3)c2)on1 [Example 30, 5-{5-[3-(4,5-Dihydro-2-oxazolyl)phenoxy]pentyl}-3-methylisoxazole]",–,0.08
"Cc1cc(CCCCCOc2ccc(C3=NCCO3)cc2Cl)no1 [Example 37, 3-{5-[2-Chloro-4-(4,5-dihydro-2-oxazolyl)phenoxy]pentyl}-5-methylisoxazole]",–,0.12
"Cc1cc(CCCCOc2ccc(C3=NC(C)(C)CO3)cc2)on1 [Example 67, 5-{4-[4-(4,5-Dihydro-4,4-dimethyl-2-oxazolyl)phenoxy]butyl}-3-methylisoxazole]",–,2.6
"Cc1cc(CCCCCCCOc2ccc(C3=NCCO3)cc2C=O)on1 [Example 69, 5-{7-[4-(4,5-Dihydro-2-oxazolyl)-2-formylphenoxy]heptyl}-3-methylisoxazole]",–,0.5
"Cc1cc(CCCCCOc2ccc(C3=NCCO3)cc2C(C)C)on1 [Example 71, 5-{5-[4-(4,5-Dihydro-2-oxazolyl)-2-(1-methylethyl)phenoxy]pentyl}-3-methylisoxazole]",–,0.075
"Cc1cc(CCCCCOc2c(Cl)cc(C3=NCCO3)cc2C(C)(C)C)on1 [Example 78, 5-{5-[2-Chloro-4-(4,5-dihydro-2-oxazolyl)-6-(1,1-dimethylethyl)phenoxy]pentyl}-3-methylisoxazole]",–,3.1
"Cc1cc(CCCCCOc2c(C(C)(C)C)cc(C3=NCCO3)cc2C(C)(C)C)on1 [Example 81, 5-{5-[4-(4,5-Dihydro-2-oxazolyl)-2,6-bis(1,1-dimethylethyl)phenoxy]pentyl}-3-methylisoxazole]",–,2.1
"Cc1cc(CCCCCOc2ccc(C3=NCCO3)cc2CO)on1 [Example 85, 5-{5-[4-(4,5-Dihydro-2-oxazolyl)-2-hydroxymethylphenoxy]pentyl}-3-methylisoxazole]",–,2.46
"Cc1cc(CCCCCCCOc2ccc(C3=NC[C@@H](C)O3)cc2)on1 [Example 123, (R)-5-{7-[4-(4,5-Dihydro-5-methyl-2-oxazolyl)phenoxy]heptyl}-3-methylisoxazole]",–,0.4
